Laboratory results published in the supplement of paper PMC11741623.
This is one part of the list. Interaction screen of human proteins with wild-type SARS-CoV-2 proteins by split-DHFR complementation in yeast, 1 µg/mL methotrexate. Value = fitness of the pair (three or more lineages) minus that of the viral protein without a human partner, on a scale set by negative (0) and fused positive (1) controls, mean of up to three cultures; higher = more likely to interact. Active = false discovery rate below 0.05 (one-sided t-test) in at least one culture. Nearly all pairs are not hits, and differences among them are mostly noise (correlation between cultures about 0.3); most hits were seen in one culture only. Human sequences are the Swiss-Prot entries looked up by gene name; the clone may be another isoform. NSP2 values were corrected by the authors for a growth advantage. Listed are human proteins with a hit and a random twelfth of the others.

Columns and labels:
Assay in all cases: yeast fitness gain over the viral ORF with no human partner (scaled fitness); higher = more likely to interact
SARS-CoV-2 NSP1 = target: SARS-CoV-2 NSP1
Method: (§1)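 Split mouse DHFR complementation in pooled diploid yeast: human ORFeome clones carry one fragment and viral ORFs the other; barcoded lineages compete in 1 µg/mL methotrexate and fitness is read by barcode sequencing in up to three cultures.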

SARS-CoV-2 NSP10 = target: SARS-CoV-2 NSP10
Method: as §1

SARS-CoV-2 NSP12 = target: SARS-CoV-2 NSP12
Method: as §1

SARS-CoV-2 NSP13 = target: SARS-CoV-2 NSP13
Method: as §1

SARS-CoV-2 NSP2 = target: SARS-CoV-2 NSP2
Method: as §1

SARS-CoV-2 NSP5 = target: SARS-CoV-2 NSP5
Method: as §1

SARS-CoV-2 NSP7 = target: SARS-CoV-2 NSP7
Method: as §1

SARS-CoV-2 NSP9 = target: SARS-CoV-2 NSP9
Method: as §1

SARS-CoV-2 ORF10 = target: SARS-CoV-2 ORF10
Method: as §1

SARS-CoV-2 ORF3B = target: SARS-CoV-2 ORF3B
Method: as §1

SARS-CoV-2 ORF6 = target: SARS-CoV-2 ORF6
Method: as §1

SARS-CoV-2 ORF7B = target: SARS-CoV-2 ORF7B
Method: as §1

SARS-CoV-2 ORF8 = target: SARS-CoV-2 ORF8
Method: as §1

SARS-CoV-2 ORF9B = target: SARS-CoV-2 ORF9B
Method: as §1

SARS-CoV-2 NSP16 = target: SARS-CoV-2 NSP16
Method: as §1

SARS-CoV-2 NSP6 = target: SARS-CoV-2 NSP6
Method: as §1

SARS-CoV-2 NSP8 = target: SARS-CoV-2 NSP8
Method: as §1

SARS-CoV-2 ORF7A = target: SARS-CoV-2 ORF7A
Method: as §1

SARS-CoV-2 S = target: SARS-CoV-2 S
Method: as §1

[1] = target: SARS-CoV-2 ORF9Bwu (the 73-codon ORF)
Method: as §1

Measured: yeast fitness gain

B1: PCDHA4, Q9UN74 (protein)
chain: MEFSWGSGQESRRLLLLLLLLAAWEAGNGQLHYSVSEEAKHGTFVGRIAQDLGLELAELVPRLFRVASKGRGGLLEVNLQNGILFVNSRIDREELCRRSAECSIHLEVIVDRPLQVFHVDVEVRDINDNPPVFPATQKNLSIAESRPLDSRFPLEGASDADIGENALLTYRLSPNEYFSLEKPPDDELVKGLGLILRKSLDREEAPEIFLVLTATDGGKPELTGTVQLLITVLDANDNAPAFDRTIYKVRLLENVPNGTLVIKLNASDLDEGLNGDIVYSFSNDISPNVKSKFHIDPITGQIIVKGYIDFEESKSYEIIVEGIDKGQLPLSGHCRVIVEVEDNNDNVPDLEFKSLSLPIREDAPLGTVIALISVSDKDMGVNGLVTCSLTSHVPFKLVSTFKNYYSLVLDSALDRESVSAYELVVTARDGGSPSLWATASVSVEVADVNDNAPAFAQPEYTVFVKENNPPGCHIFTVSAWDADAQENALVSYSLVERRVGERALSSYVSVHAESGKVYALQPLDHEELELLQFQVTARDAGVPPLGSNVTLQVFVLDENDNAPALLAPRAGGTGGAVSELVPWSVGVGHVVAKVRAVDADSGYNAWLSYELQPGTGGARIPFRVGLYTGEISTTRALDETDAPRHRLLVLVKDHGEPALTATATVLVSLVESGQAPKASSRALVGAVGPDAALVDVNVYLIIAICAVSSLLVLTLLLYTALRCSALPTEGACAPGKPTLVCSSAVGSWSYSQQRRPRVCSGEGPPKTDLMAFSPSLPDSRDREDQLQTTEESFAKPRQPNPDWRYSASLRAGMHSSVHLEEAGILRAGPGGPDQQWPTVSSATPEPEAGEVSPPVGAGVNSNSWTFKYGPGNPKQSGPGELPDKFIIPGSPAIISIRQEPTNSQIDKSDFITFGKKEETKKKKKKKKGNKTQEKKEKGNSTTDNSDQ
inactive: SARS-CoV-2 NSP1 = -0.0967 | SARS-CoV-2 NSP10 = 0.0245 | SARS-CoV-2 NSP12 = 0.0853 | SARS-CoV-2 NSP13 = -0.00713 | SARS-CoV-2 NSP2 = -0.157 | SARS-CoV-2 NSP5 = 0.0282 | SARS-CoV-2 NSP7 = 0.0949 | SARS-CoV-2 NSP9 = 0.0142 | SARS-CoV-2 ORF10 = -0.0146 | SARS-CoV-2 ORF3B 0.0111 | SARS-CoV-2 ORF6 = 0.0129 | SARS-CoV-2 ORF7B 0.0859 | SARS-CoV-2 ORF8 = 0.0172 | SARS-CoV-2 ORF9B -0.0759

B2: CLVS2, Q5SYC1 (protein)
chain: MTHLQAGLSPETLEKARLELNENPDTLHQDIQEVRDMVITRPDIGFLRTDDAFILRFLRARKFHHFEAFRLLAQYFEYRQQNLDMFKSFKATDPGIKQALKDGFPGGLANLDHYGRKILVLFAANWDQSRYTLVDILRAILLSLEAMIEDPELQVNGFVLIIDWSNFTFKQASKLTPSMLRLAIEGLQDSFPARFGGIHFVNQPWYIHALYTVIRPFLKEKTRKRIFLHGNNLNSLHQLIHPEILPSEFGGMLPPYDMGTWARTLLDHEYDDDSEYNVDSYSMPVKEVEKELSPKSMKRSQSVVDPTVLKRMDKNEEENMQPLLSLD
inactive: SARS-CoV-2 NSP1 = 0.0151 | SARS-CoV-2 NSP10 = 0.0385 | SARS-CoV-2 NSP12 = 0.00104 | SARS-CoV-2 NSP13 = 0.0233 | SARS-CoV-2 NSP16 = 0.0564 | SARS-CoV-2 NSP2 = -0.0842 | SARS-CoV-2 NSP5 = 0.00677 | SARS-CoV-2 NSP6 = -0.0783 | SARS-CoV-2 NSP7 = -0.0117 | SARS-CoV-2 NSP8 = -0.109 | SARS-CoV-2 ORF10 = 0.0702 | SARS-CoV-2 ORF3B 0.097 | SARS-CoV-2 ORF6 = 0.0519 | SARS-CoV-2 ORF7A 0.0754 | SARS-CoV-2 ORF7B 0.0615 | SARS-CoV-2 ORF8 = 0.0234 | SARS-CoV-2 ORF9B 0.0214 | SARS-CoV-2 S -0.068

B3: RGR, P47804 (protein)
chain: MAETSALPTGFGELEVLAVGMVLLVEALSGLSLNTLTIFSFCKTPELRTPCHLLVLSLALADSGISLNALVAATSSLLRRWPYGSDGCQAHGFQGFVTALASICSSAAIAWGRYHHYCTRSQLAWNSAVSLVLFVWLSSAFWAALPLLGWGHYDYEPLGTCCTLDYSKGDRNFTSFLFTMSFFNFAMPLFITITSYSLMEQKLGKSGHLQVNTTLPARTLLLGWGPYAILYLYAVIADVTSISPKLQMVPALIAKMVPTINAINYALGNEMVCRGIWQCLSPQKREKDRTK
inactive: SARS-CoV-2 NSP1 = -0.0177 | SARS-CoV-2 NSP10 = -0.0185 | SARS-CoV-2 NSP12 = -0.0446 | SARS-CoV-2 NSP13 = -0.0896 | SARS-CoV-2 NSP2 = -0.171 | SARS-CoV-2 NSP5 = -0.0833 | SARS-CoV-2 NSP7 = 0.0348 | SARS-CoV-2 NSP9 = 0.0261 | SARS-CoV-2 ORF10 = 0.0309 | SARS-CoV-2 ORF3B -0.0257 | SARS-CoV-2 ORF6 = -0.0629 | SARS-CoV-2 ORF7B -0.06 | SARS-CoV-2 ORF8 = 0.11 | SARS-CoV-2 ORF9B -0.0546 | [1] -0.014 | SARS-CoV-2 S -0.0637

B4: HMBOX1, Q6NT76 (protein)
chain: MLSSFPVVLLETMSHYTDEPRFTIEQIDLLQRLRRTGMTKHEILHALETLDRLDQEHSDKFGRRSSYGGSSYGNSTNNVPASSSTATASTQTQHSGMSPSPSNSYDTSPQPCTTNQNGRENNERLSTSNGKMSPTRYHANSMGQRSYSFEASEEDLDVDDKVEELMRRDSSVIKEEIKAFLANRRISQAVVAQVTGISQSRISHWLLQQGSDLSEQKKRAFYRWYQLEKTNPGATLSMRPAPIPIEDPEWRQTPPPVSATSGTFRLRRGSRFTWRKECLAVMESYFNENQYPDEAKREEIANACNAVIQKPGKKLSDLERVTSLKVYNWFANRRKEIKRRANIEAAILESHGIDVQSPGGHSNSDDVDGNDYSEQDDSTSHSDHQDPISLAVEMAAVNHTILALARQGANEIKTEALDDD
inactive: SARS-CoV-2 NSP1 = -0.0623 | SARS-CoV-2 NSP12 = -0.0895 | SARS-CoV-2 NSP13 = -0.33 | SARS-CoV-2 NSP5 = 0.0269 | SARS-CoV-2 ORF3B -0.201 | SARS-CoV-2 ORF6 = 0.00748 | SARS-CoV-2 ORF9B -0.0371
